{
  "source": "PubChem BioAssay AID463173",
  "about": "(ICCB-Longwood Screening Facility, Harvard Medical School, 2010)",
  "note": "Hit rate of the full screen: of about 52,000 compounds, about 4,300 (8.3%) were called active. Cut-off read from the data, not from the text of the source: active = survival mostly below about 52% (no sharp cut-off); inactive = mostly above about 56%. Some of the results follow.",
  "data": [
    {"test_system": "DeltatarO mutant", "assay": "S. aureus survival, RN4220 and DeltatarO strains – OD600, teichoic acid synthesis inhibitors, primary screen (AID 463173)", "details": "S. aureus RN4220 wild type/DeltatarO growth, OD600, 18 h, stronger effect = lower value, screened at 18.75 µg/mL (by protocol)", "values": [
      {"smiles": "CCc1ccc(NC(=O)N2CC(C)Oc3ccc(C)cc32)cc1", "note": "(configuration not stated)", "survival": "inactive: 96%"},
      {"smiles": "COc1cc2ccccc2cc1C(=O)Nc1ccc2oc(-c3cccc(Cl)c3Cl)nc2c1", "survival": "inactive: 56%"},
      {"smiles": "CN1C(=O)c2ccc(NC3=NS(=O)(=O)c4ccccc43)cc2C1=O", "survival": "inactive: 79%"},
      {"smiles": "COc1ccccc1Nc1nc2ccc(Cl)cc2nc1-n1nc(C)cc1C", "survival": "inactive: 133%"},
      {"smiles": "Cc1ccc2oc3c(c(=O)c2c1)C(c1ccc(F)cc1)N(c1nc(C)c(C)s1)C3=O", "note": "(configuration not stated)", "survival": "inactive: 175%"},
      {"smiles": "COc1ccc(C2CC(=O)Nc3c2c(=O)[nH]c2nc4ccccc4n32)cc1OC", "note": "(configuration not stated)", "survival": "inactive: 133%"},
      {"smiles": "COc1ccc(NC(=O)c2nc3nc(C)cc(C(F)F)n3n2)c(C)c1", "survival": "inactive: 80%"},
      {"smiles": "CCOC(=O)c1ccc(NC(=O)CC2C(=O)N(c3ccc(F)cc3)C(=O)N2Cc2ccc3c(c2)OCO3)cc1", "note": "(configuration not stated)", "survival": "inactive: 116%"},
      {"smiles": "CN1C(=O)Cc2cc(S(=O)(=O)CCC(=O)N3CCN(c4ccccc4F)CC3)ccc21", "survival": "inactive: 86%"},
      {"smiles": "Cc1nn(-c2ccc(N3CCCCC3)nn2)c(C)c1CCC(=O)NCc1ccccc1F", "survival": "inactive: 74%"},
      {"smiles": "Cc1ccccc1C1C=C(c2ccc(Cl)cc2)Nc2nnnn21", "note": "(configuration not stated)", "survival": "inactive: 83%"},
      {"smiles": "COc1ccc(-n2nc3c(N4CCCC(C(=O)NCCc5ccc(C)cc5)C4)nnc(C)c3c2C)cc1", "note": "(configuration not stated)", "survival": "inactive: 98%"},
      {"smiles": "CCOC(=O)c1ccc(NC(=O)Cn2cnc(S(=O)(=O)N3CCCC3)c2)cc1", "survival": "inactive: 94%"},
      {"smiles": "O=c1[nH]nc2c3c(cccc13)-c1ccccc1-2", "survival": "inactive: 99%"},
      {"smiles": "CCCn1c(NCc2ccccc2C)nc2ccccc21", "survival": "inactive: 108%"},
      {"smiles": "O=C(CCn1[nH]c(=O)c2ccccc2c1=O)OC1CCCCC1", "survival": "inactive: 64%"},
      {"smiles": "CS(=O)(=O)N(CC(=O)N1CCCC1)c1ccc2c(c1)OCO2", "survival": "inactive: 88%"},
      {"smiles": "COc1ccc(-n2cc(-c3ccccc3)nc2SCC(=O)Nc2ccccc2)cc1Cl", "survival": "inactive: 80%"},
      {"smiles": "CCc1ccc(S(=O)(=O)c2nnn3c2nc(N2CCCC2)c2sccc23)cc1", "survival": "inactive: 105%"},
      {"smiles": "COc1ccc(CNC(=O)c2ccc3c(c2)nc2n3CCCCC2)c(OC)c1", "survival": "inactive: 71%"},
      {"smiles": "CCOC(=O)c1cccc(NS(=O)(=O)c2cn(C)c(C)n2)c1", "survival": "inactive: 98%"},
      {"smiles": "COc1ccc(/C=C/c2noc(-c3ccccc3O)n2)cc1OC", "survival": "inactive: 130%"},
      {"smiles": "Cc1ccc(Cn2ccn(Cc3ccccc3C)c(=O)c2=O)cc1", "survival": "inactive: 80%"},
      {"smiles": "COC(=O)c1ccccc1NC(=O)Cn1c(=O)n(-c2ccc(Cl)cc2)c(=O)c2c(C)c(C)sc21", "survival": "inactive: 86%"},
      {"smiles": "CCOc1ccc(OCC)c(NC(=O)CCc2c(C)nc3c(c2C)c(=O)n(C)c(=O)n3C)c1", "survival": "inactive: 90%"},
      {"smiles": "O=C(c1ccc2c(c1)N(Cc1ccccc1)C(=O)c1ccccc1S2(=O)=O)N1CCN(c2ccccn2)CC1", "survival": "inactive: 67%"},
      {"smiles": "CCOc1ccccc1CNC(=O)c1cc(-c2ccc(OC)cc2)nc2ccc(C(C)C)cc12", "survival": "inactive: 66%"},
      {"smiles": "COc1cc(C2c3c(oc4ccccc4c3=O)C(=O)N2c2nnc(C(C)C)s2)cc(OC)c1OC", "note": "(configuration not stated)", "survival": "inactive: 63%"},
      {"smiles": "Cc1ccc(NC(=O)C(=O)NCC(c2cccnc2)N2CCc3ccccc32)cc1Cl", "note": "(configuration not stated)", "survival": "inactive: 97%"},
      {"smiles": "COc1ccc(S(=O)(=O)N(CC(=O)NCc2ccc(C)cc2)c2ccc(Cl)cc2)cc1", "survival": "inactive: 127%"},
      {"smiles": "CCOc1ccccc1NC(=O)CN1C(=O)C2(SCC(=O)N2c2cccc(F)c2)c2ccccc21", "note": "(configuration not stated)", "survival": "inactive: 69%"},
      {"smiles": "O=C(Nc1ccc(F)c(Cl)c1)c1cc(S(=O)(=O)N2CCCc3ccccc32)ccc1F", "survival": "inactive: 109%"},
      {"smiles": "Cc1c(Cl)cccc1NC(=O)CCn1nc(C)c2c(C)n(-c3ccccc3)nc2c1=O", "survival": "inactive: 92%"},
      {"smiles": "COc1ccc(NC(=O)c2sc3nc(C)c(C(=O)Nc4ccc(Cl)cc4)c(-c4ccc(Br)cc4)c3c2N)cc1", "survival": "inactive: 57%"},
      {"smiles": "CCOc1ccc(C(=O)N2CCCCC2CCN2CCOCC2)cc1", "note": "(configuration not stated)", "survival": "inactive: 76%"},
      {"smiles": "COc1cccc(-c2cc(C(=O)Nc3ccc(C)cc3)[nH]n2)c1", "survival": "inactive: 95%"},
      {"smiles": "COc1ccc(C(=O)N2CCc3cc(OC)c(OC)cc3C2COc2ccc3c(C)cc(=O)oc3c2)c(OC)c1", "note": "(configuration not stated)", "survival": "inactive: 51%"},
      {"smiles": "Cc1cc(C)n(-c2nc3ccccc3nc2Nc2cc(C(=O)O)ccc2C)n1", "survival": "active: 42%"},
      {"smiles": "Cc1cc(C)cc(-n2nnc(-c3nc(-c4ccccc4F)no3)c2C)c1", "survival": "inactive: 76%"},
      {"smiles": "COc1cc(NS(=O)(=O)c2ccc3c(c2)CCCN3C(C)=O)cc(OC)c1OC", "survival": "inactive: 89%"},
      {"smiles": "Cc1ccc(CN2CCN(CC(=O)NCc3ccccc3Cl)C2=O)cc1", "survival": "inactive: 70%"},
      {"smiles": "COc1cccc(CNC(=O)CCCN2C(=O)CSc3c2c(C)nn3-c2ccccc2)c1", "survival": "inactive: 83%"},
      {"smiles": "Cc1ccc(SCCNS(C)(=O)=O)cc1", "survival": "inactive: 109%"},
      {"smiles": "O=c1c2ccccc2n(Cc2cccc(F)c2)c(=O)n1Cc1ccccc1Cl", "survival": "active: 29%"},
      {"smiles": "COc1ccc(-c2ccc3c(N)c(C(=O)Nc4cc(F)ccc4C)sc3n2)cc1", "survival": "inactive: 111%"},
      {"smiles": "Cc1cccc(Nc2c3c(nc4nncn24)CCC3)c1", "survival": "inactive: 69%"},
      {"smiles": "CCn1cc(C(=O)N2CCN(c3cc(C)ccc3C)CC2)c(=O)c2cc(S(=O)(=O)N(C)C3CCCCC3)ccc21", "survival": "inactive: 69%"},
      {"smiles": "Cc1ccc(-c2cc(C(=O)NCCc3ccccc3)c3c(-c4ccc(C)cc4)[nH]nc3n2)cc1", "survival": "inactive: 76%"},
      {"smiles": "COc1ccccc1N1CCN(CC(O)COc2cc(C)cc(C)c2)CC1", "note": "(configuration not stated)", "survival": "inactive: 71%"},
      {"smiles": "CCOc1ccc(N2C(=O)N(Cc3ccc(C)cc3C)c3ccccc3S2(=O)=O)cc1", "survival": "inactive: 94%"},
      {"smiles": "COc1cccc(-n2cc(C(=O)NCc3cccc(Cl)c3)c3ccccc3c2=O)c1", "survival": "active: 58%"},
      {"smiles": "COc1ccc(S(=O)(=O)Nc2cc3c(cc2NCc2ccccc2)n(C)c(=O)n3C)cc1OC", "survival": "inactive: 90%"},
      {"smiles": "CCOc1ccc(NC(=O)c2ccc(-c3ccccc3)s2)cc1", "survival": "inactive: 86%"},
      {"smiles": "Cc1nc2c(-c3ccc(F)cc3)c(C)nn2c(C)c1CCC(=O)NCc1ccc(Cl)cc1", "survival": "inactive: 96%"},
      {"smiles": "Cc1cc(C)n(C(C)n2nc(C)cc2C)n1", "survival": "inactive: 93%"},
      {"smiles": "COc1ccccc1N1CCN(C(=O)Cn2c(=O)nc(-c3ccccc3)c3cc(Cl)ccc32)CC1", "survival": "inactive: 83%"},
      {"smiles": "CCCCN1CCc2nc(N3CCN(c4ncccn4)CC3)ncc2C1", "survival": "inactive: 94%"},
      {"smiles": "Cc1ccc(NC(=O)CSc2nc3c([nH]c4ccccc43)c(=O)n2-c2ccccc2)c(C)c1", "survival": "inactive: 96%"},
      {"smiles": "CCN(c1ccccc1)S(=O)(=O)c1ccc(NC(=O)c2cc(=O)c3cc(C)c(C)cc3o2)cc1", "survival": "inactive: 49%"},
      {"smiles": "Cc1cccc(NS(=O)(=O)c2ccc3c(c2)CCN3C(=O)CCC(=O)O)c1C", "survival": "inactive: 82%"},
      {"smiles": "O=C(NCCc1nc2ccccc2[nH]1)c1ccc(F)cc1", "survival": "inactive: 81%"},
      {"smiles": "Cc1c(Cl)cccc1NC(=O)c1ccc(C(=O)Nc2cccc(Cl)c2C)cc1", "survival": "inactive: 81%"},
      {"smiles": "COCCCNC(=O)c1sc2nc(C)c(C(=O)Nc3ccc(C)cc3C)c(-c3ccc(Cl)cc3)c2c1N", "survival": "inactive: 139%"},
      {"smiles": "CC1CCN(C(=O)c2cnn(-c3cccc(Cl)c3)c2C2CCN(C(=O)OC(C)(C)C)CC2)CC1", "survival": "inactive: 78%"},
      {"smiles": "CC(=O)N1CCc2c(sc3c2c(=O)n(-c2ccccc2C)c(=O)n3Cc2cccc(F)c2)C1", "survival": "inactive: 72%"},
      {"smiles": "CC(=O)Nc1ccc(S(=O)(=O)N2CCC(Oc3ccc(-n4cnnn4)cc3)CC2)cc1", "survival": "inactive: 110%"},
      {"smiles": "Cc1cccc2c(=O)c(C(=O)NCc3cccs3)c[nH]c12", "survival": "inactive: 85%"},
      {"smiles": "CSc1ccc(CNC(=O)c2ccccc2NC(=O)c2nsc3ccccc23)cc1", "survival": "inactive: 77%"},
      {"smiles": "COc1ccc(NC(=O)c2c(-c3ccccc3)c(-c3ccccc3)nn(C)c2=O)c(OC)c1", "survival": "inactive: 52%"},
      {"smiles": "COc1ccc(OCC(=O)NCC(c2ccc(Cl)cc2)N2CCCCC2)cc1", "note": "(configuration not stated)", "survival": "inactive: 67%"},
      {"smiles": "CC(C)c1ccc(S(=O)(=O)Nc2ccc3oc4c(c3c2)C(=O)CC(C)(C)C4)cc1", "survival": "inactive: 133%"},
      {"smiles": "Cc1ccc2c(=O)cc(CSc3nnc(-c4ccccc4)n3C)[nH]c2c1C", "survival": "inactive: 85%"},
      {"smiles": "Cc1cc(C)c(NC(=O)c2cc3c(=O)n4ccccc4nc3n2C)c(C)c1", "survival": "inactive: 57%"},
      {"smiles": "Cc1cc(-c2nc3ncccc3o2)ccc1NC(=O)c1ccc(Br)cc1", "survival": "inactive: 174%"},
      {"smiles": "CCOC(=O)Cn1c(=O)n(C2CCCCC2)c2nc(-c3ccc(Cl)cc3)nc(C(N)=O)c21", "survival": "inactive: 87%"},
      {"smiles": "COc1ccc(N2CCN(C3=NS(=O)(=O)C(c4cccc(Br)c4)=C3C)CC2)cc1", "survival": "inactive: 80%"},
      {"smiles": "O=C(Oc1ccc2c(c1)OCO2)c1cccc(S(=O)(=O)N2CCCC2)c1", "survival": "inactive: 58%"},
      {"smiles": "Cc1cc(C)c(NC(=O)CCc2c(C)nc3c(c(C)nn3C(C)(C)C)c2C)c(C)c1", "survival": "inactive: 99%"},
      {"smiles": "CCOC(=O)c1ccc(NC(=O)CCc2c(C)nc3nc[nH]n3c2=O)cc1", "survival": "inactive: 100%"},
      {"smiles": "COC(=O)c1cc2sc(C)cc2n1Cc1ccc(Br)cc1F", "survival": "inactive: 89%"},
      {"smiles": "COc1ccc(C2=NN(CC(=O)NCCCN(C)c3ccccc3)C(=O)CC2)cc1", "survival": "inactive: 116%"},
      {"smiles": "COc1ccc(CN2COc3ccc4c(oc(=O)c5ccccc54)c3C2)cc1OC", "survival": "inactive: 58%"},
      {"smiles": "Cc1ccccc1Nc1c(-c2ccc(N3CCOCC3)cc2)nc2ncccn12", "survival": "inactive: 83%"},
      {"smiles": "O=C(Nc1ccccc1-c1nc2ccccc2s1)c1cc(Cl)cc(Cl)c1", "survival": "inactive: 84%"},
      {"smiles": "Cc1c(CNC(C)CCc2ccccc2)c(C(=O)O)c(C)n1Cc1ccc(F)cc1Cl", "note": "(configuration not stated)", "survival": "inactive: 64%"},
      {"smiles": "CCCCOc1ccc(C(=O)N(Cc2ccc(C(C)C)cc2)C2CCS(=O)(=O)C2)cc1", "note": "(configuration not stated)", "survival": "active: 22%"},
      {"smiles": "COC(=O)c1scc(-c2ccccc2)c1S(=O)(=O)Nc1cccc(C)c1C", "survival": "inactive: 85%"}
    ]}
  ]
}
